Here are results for 56 compounds from ChEMBL document CHEMBL4888484, “Replenishing the malaria drug discovery pipeline: Screening and hit evaluation of the MMV Hit Generation Library 1 (HGL1) against asexual blood stage Plasmodium falciparum ,using a nano luciferase reporter read-out” (2022).

Screen size: about 150,000 compounds; about 540 (0.36%) showed an effect of 50% or more. This is one part of the list.

In the assay the test system is Plasmodium falciparum. As to the kind of experiment: Primary screen in NF54 nanoGlo assay, in single point, at 2uM, 72h; a lower Z score goes with more inhibition. The class given is functional, Erythrocyte. To be noted: timepoint 72 hour.
A word on the % Inhibition: it is the drop in the measured response relative to a control, in per cent. Consider `CCc1c(C)nc2nc(-c3ccco3)nn2c1NCc1ccc(F)cc1`, for which the “% Inhibition” value was -26% and the Z score was determined as 4.71.
The matching figures for `O=S(=O)(CCNCc1cc(O)c2cccc(Cl)c2n1)N1CCCC1`: -3% and 0.48.
For `COCCNc1c(-c2ccc(F)cc2)nc2sc(C(=O)N3CCCC3)c(C)n12` the same measures were -21% and 3.56.
As for `CN(CC(C)(CO)CO)c1ccc(F)cn1`, the “% Inhibition” value stood at 1% and the Z score was -0.18.
`CCc1ccnc(CNC(=O)N[C@H]2CCCC23CCOCC3)c1`: the “% Inhibition” value is on record as -5% and the Z score was 0.87.
The matching figures for `Cc1ccc(NC2=NC(N)=NC3(CCCCC3)N2)c(C)c1`: -4% and 0.48.
The matching figures for `CC1=C[C@@H](CO)[C@H](C(C)C)C[C@H]1Cc1nnc(C(C)(C)C)o1`: 23% and -2.61.
Consider `CC[C@@H](C#N)S(=O)(=O)NC(C)(C)Cc1cccc(OC)c1`, for which the “% Inhibition” value worked out at 3% and the Z score is given as -0.37.
As for `Cc1cc(CNC(=O)N2CCN(Cc3ccccc3)C(C)(C)C2)no1`, the “% Inhibition” value came to 18% and the Z score is listed as -2.26.
The matching figures for `Cc1noc(C)c1CN1CCC[C@H](Cn2cc(C(C)(C)O)nn2)C1`: -21% and 1.9.
The matching figures for `O=C(NC1CCCC1)c1cc2c(s1)CCCCC2`: -9% and 0.74.
For the compound `Cc1nc(CN)cc(N[C@@H](C)C2CCCCC2)n1`, the “% Inhibition” value is given as -5% and the Z score came to 0.8.
For `CC[C@H](C)Oc1ccc(-c2nc(=O)c(CCC(=O)NC3CCCCC3)n[nH]2)cc1`, the “% Inhibition” value worked out at 1% and the Z score was -0.16.
The matching figures for `O=C(Nc1cccnc1)c1ccc(Oc2ncnc3sccc23)cc1`: -10% and 1.55.
The matching figures for `Cc1cc(CS(=O)(=O)c2ccccc2F)on1`: 1% and -0.18.
With `CN(CCO)c1ncc(Cl)cc1F`, the “% Inhibition” value came out at 2% and the Z score is on record as -0.22.
As to `CCNc1ncc(S(=O)(=O)N(C)Cc2cscn2)cc1Cl`, the “% Inhibition” value is given as -5% and the Z score is recorded as 0.7.
Take `O=C(O)C1(Oc2ccncc2)CCC(c2ccccc2)C1` (configuration not stated): the “% Inhibition” value was -17% and the Z score came out at 3.23.
For `CCOC(=O)C(=O)c1n[nH]c(C(=O)OC)c1C(=O)OC` the same measures were -5% and 0.65.
Regarding `CNC(=O)Cc1noc(-c2cc3ccccc3cc2O)n1`, the “% Inhibition” value is -5% and the Z score was 0.54.
For `CC(C)(C)Oc1nc(NC2CCC3(CC2)OCCO3)ncc1Br` the same measures were -6% and 0.53.
With `C#Cc1cccc(NC(=O)CCc2c(C)nc3[nH]n(C)c(=O)c3c2C)c1`, the “% Inhibition” value is recorded as -10% and the Z score amounted to 0.95.
For `Cc1ccc(S(=O)(=O)NC[C@H]2OC[C@@H](NC(C)C)[C@@H]2O)cc1` the same measures were -8% and 0.97.
The matching figures for `CC(C)[C@H](CC(=O)NS(C)(=O)=O)c1ccccc1`: -7% and 0.84.
The matching figures for `Cc1cncn1C1CCN(C(=O)c2cc(Br)co2)CC1`: -4% and 0.71.
On to `O=C1CCc2cc(NCc3cc4cc(F)ccc4o3)ccc2N1`, for which the “% Inhibition” value was -6% and the Z score was 0.93.
For `Cc1c2ccc(NC(=O)C3CCOCC3)cc2nn1C` the same measures were 3% and -0.48.
The matching figures for `OC[C@H]1CN(Cc2cc(O)c3cccc(F)c3n2)C[C@@H]1CO`: 6% and -1.11.
The matching figures for `CCN1C(=O)C[C@](CC(=O)N2CCC(COC)CC2)(c2cccc(C(F)(F)F)c2)C1=O`: -1% and 0.24.
With `O=C1[C@@H]2CCCCN2C(=O)N1c1cncc(Br)c1`, the “% Inhibition” value was -7% and the Z score was 0.63.
For `Cc1ccc(Cl)cc1NC(=O)c1cccn2c(-c3ccc(F)cc3)nnc12` the same measures were -11% and 1.82.
The matching figures for `O=C(c1cccc(F)c1)N1CCC(N2CC3(CCCCC3)[C@H]2c2ccccc2)CC1`: 0% and -0.03.
For `Nc1cc(-c2ccc(F)cc2)nn1-c1nc(-c2ccc(Cl)cc2)cs1` the same measures were 12% and -2.1.
Regarding `Cc1nc(N2CCCC2)nc(C)c1NC(=O)COc1ccc(Cl)cc1Cl`, the “% Inhibition” value is -11% and the Z score is listed as 1.68.
As for `CCc1nc([C@H](C)NC(=O)c2cc(Cn3cccn3)on2)cs1`, the “% Inhibition” value is -1% and the Z score is given as 0.29.
With `Cc1n[nH]c(C(=O)N2CCC=C(F)C2)c1C`, the “% Inhibition” value is -6% and the Z score worked out at 0.59.
The matching figures for `COC(c1ccc(Cl)cc1)C(C)Nc1nccnc1C#N` (configuration not stated): -7% and 1.05.
As for `CCCc1noc(CCC(=O)N2CCc3ccccc3C2)n1`, the “% Inhibition” value is on record as 0% and the Z score came out at 0.
Turning to `CCc1nsc(N2CC[C@H](c3ccccn3)C2)n1`, the “% Inhibition” value is on record as 3% and the Z score is on record as -0.31.
The matching figures for `COc1cc(F)c(C(=O)Nc2c(C)c(C3CC3)nn2-c2ccccc2)cc1OC`: 7% and -0.84.
As to `COC(=O)N1CCc2ccc(F)cc2[C@@H]1C(=O)N1CCN(S(=O)(=O)C2CC2)CC1`, the “% Inhibition” value is given as -4% and the Z score is 0.62.
As to `COc1ccc(C2=NN(C(=O)CN3CCCCC3C)C(c3ccccc3OC)C2)cc1` (configuration not stated), the “% Inhibition” value is listed as -4% and the Z score is reported as 0.56.
The matching figures for `Cc1nnsc1C(=O)N1CC[C@H](N2C(=O)COC2=O)C1`: -2% and 0.34.
As for `CCc1nc(CN(C)Cc2nnc(C3CC3)n2C)no1`, the “% Inhibition” value is reported as -9% and the Z score stood at 0.8.
Take `CC(C)(C)C(=O)NCCN1c2ccccc2N(C2CC2)S1(=O)=O`: the “% Inhibition” value was -19% and the Z score was 3.62.
The matching figures for `CN1CCCN(c2cnn(CCn3cnc4ccccc43)c(=O)c2)CC1`: 10% and -1.22.
With `O=C(NCCC1(O)CCCC1)c1cncs1`, the “% Inhibition” value was -34% and the Z score is given as 3.
As to `COc1ccc(C(CC(=O)O)NC(=O)C2C3CCCCC32)c(OC)c1` (configuration not stated), the “% Inhibition” value is 12% and the Z score is recorded as -1.41.
The matching figures for `C[C@H]1CC[C@@H](C(=O)Nc2ccccc2F)O1`: 1% and -0.1.
Take `N#CCN(C(=O)CCCOCCc1ccccc1)C1CC1`: the “% Inhibition” value came to 4% and the Z score is -0.51.
Regarding `CC(C)CC(=O)N1CCc2ccc(OC(C)C(=O)Nc3cccc(Cl)c3)cc2C1c1ccccc1` (configuration not stated), the “% Inhibition” value is -25% and the Z score amounted to 2.4.
For the compound `Cc1nc(CC(=O)NCCCn2nccc2C2CC2)c(C)s1`, the “% Inhibition” value is recorded as -6% and the Z score stood at 0.9.
Regarding `Cc1c(C(=O)NCCCn2ccnc2)cnn1C`, the “% Inhibition” value is on record as -1% and the Z score was 0.22.
Turning to `N#CCCN(Cc1ccccc1)C[C@H](O)c1cccs1`, the “% Inhibition” value is recorded as -5% and the Z score was 0.7.
The matching figures for `C=C(C)CNC(=O)[C@H]1CCCN(C2CCN(C3Cc4ccccc4C3)CC2)C1`: 8% and -1.46.
As to `CCC[C@H](NC(=O)CNS(C)(=O)=O)c1nccn1C`, the “% Inhibition” value is -8% and the Z score is on record as 1.16.
